Data published in PubChem BioAssay AID1768 (National Center for Advancing Translational Sciences (NCATS), 2009).
Several values for one entry are separate records, joined by “and”; a condition that tells them apart may be missing. Identical values can stand only once. Out of some 270,000 compounds screened, about 620 (0.23%) were called active. The inconclusive results got no clear call from the source; some entries with a clear call stand among them for comparison. The call rests on the fitted dose curve; in most records, active means well fitted inhibition curve with a large enough effect in the polarisation, with a control signal flat (not every such curve was filed as active); inconclusive means small, poorly fitted or top-dose-only effect, or effect the other way, or a change in a side signal; inactive means no such curve, though single readings can be large or run the other way; the % refers to the polarisation. Potencies beside an inconclusive call are fits to weak or partial responses and may not hold up. A note “side channel” means that the fit belongs to a control or component signal, not to the main read-out.

Target: Menin (Homo sapiens) (UniProt O00255)
Chain of UniProt O00255 (O00255 whole entry, looked up): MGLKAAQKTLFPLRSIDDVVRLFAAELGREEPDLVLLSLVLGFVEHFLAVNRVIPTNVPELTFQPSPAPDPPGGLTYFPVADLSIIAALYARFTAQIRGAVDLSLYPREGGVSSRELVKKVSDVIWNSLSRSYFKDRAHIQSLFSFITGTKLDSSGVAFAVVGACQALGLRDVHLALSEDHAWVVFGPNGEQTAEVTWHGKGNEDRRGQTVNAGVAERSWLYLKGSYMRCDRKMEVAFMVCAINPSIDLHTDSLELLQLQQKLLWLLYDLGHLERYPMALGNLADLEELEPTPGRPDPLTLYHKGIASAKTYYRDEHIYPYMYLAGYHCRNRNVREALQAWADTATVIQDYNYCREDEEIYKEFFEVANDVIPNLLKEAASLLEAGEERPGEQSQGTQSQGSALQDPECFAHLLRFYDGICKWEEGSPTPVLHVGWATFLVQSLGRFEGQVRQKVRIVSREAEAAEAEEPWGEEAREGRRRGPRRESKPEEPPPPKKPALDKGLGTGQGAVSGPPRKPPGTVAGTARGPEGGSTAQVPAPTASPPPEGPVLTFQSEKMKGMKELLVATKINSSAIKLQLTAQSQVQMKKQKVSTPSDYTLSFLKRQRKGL
Experiment: qHTS Assay for Inhibitors Targeting the Menin-MLL Interaction in MLL Related Leukemias: Competition With Texas Red Labeled MLL-derived Mutant Peptide
Details: fluorescence polarization; series mostly up to 61.6 µM
Potency means the concentration at half of the fitted maximal effect; tags describe the fitted curve by direction and shape or compound fluorescence and quenching.

Potency, inconclusive:
COc1ccc(C(NC(=O)C2CCCCC2)c2c(O)ccc3ccccc23)cc1 (stereo not drawn) 28.2 µM [inhibitor, single point]
O=C(CN(C(=O)c1cccc([N+](=O)[O-])c1)C1CCCCC1)Nc1ccc(Cl)c([N+](=O)[O-])c1 3.98 µM [quencher, side channel, full curve, poor fit]
CC1CCN(S(=O)(=O)c2ccc3[nH]c(=O)ccc3c2)CC1 0.631 µM [inhibitor, full curve, poor fit]
O=C(NC1CCCC1)C(c1ccncc1)N(Cc1cccs1)C(=O)c1csnn1 (stereo not drawn) 31.6 µM [quencher, side channel, single point]
O=C(CN1C(=O)/C(=C/c2ccco2)SC1=S)NC1CCS(=O)(=O)C1 (stereo not drawn) 25.1 µM [fluorescent, single point]
CCCC(=O)N1CCN(c2ccc(NC(=O)c3ccc(OCC)c([N+](=O)[O-])c3)cc2)CC1 35.5 µM [quencher, side channel, single point]
CCCCN1C(=O)/C(=C/C=C2\Oc3ccccc3N2CC)SC1=S 39.8 µM [fluorescent, side channel, single point]
COc1cc(OC)cc(C(=O)N[C@H](C(=O)Nc2nc3ccccc3[nH]2)C(C)C)c1 28.2 µM [fluorescent, side channel, single point]
C[C@@H]1CN(CCCn2c3ccccc3c3ccccc32)C[C@H](C)N1 15.8 µM [fluorescent, side channel, partial curve, poor fit] and 14.1 µM [fluorescent, side channel, partial curve]
CC(C)c1ccc(S(=O)(=O)N2CCN(C(=O)c3ccco3)CC2)cc1 12.6 µM [fluorescent, side channel, partial curve]
COc1cccc(-c2cc(C(=O)N3CC4(C)CC3CC(C)(C)C4)no2)c1 (stereo not drawn) 12.6 µM [inhibitor, partial curve]
Cc1cccc(NC(=S)NNC(=S)NCc2ccccc2)c1 20 µM [quencher, side channel, partial curve]
Cc1c(Cc2c(Cl)cccc2Cl)c(=O)ccn1C(C)c1ccccc1 (stereo not drawn) 20 µM [fluorescent, side channel, partial curve]
Cc1ccc(-n2c(O)c(/C=N/NC(=O)C3COc4ccccc4O3)c3ccccc3c2=O)cc1 (stereo not drawn) 28.2 µM [quencher, side channel, single point]
N#CC1=C(SCC(=O)Nc2cccc3cccnc23)NC(=O)C(C#N)C12CCCCC2 (stereo not drawn) 4.47 µM [quencher, side channel, full curve]
CC1CCCCN1CC(=O)Nc1ccc(N2CCCCCC2)cc1 (stereo not drawn) 3.55 µM [fluorescent, side channel, full curve]
CCNC(=S)NNC(=O)C(c1ccccc1)c1ccccc1 8.91 µM [inhibitor, single point]
Cc1ccc2ccccc2c1NC(=O)Cn1nnc(-c2cccnc2)n1 8.91 µM [quencher, side channel, partial curve]
Cc1ccc(NC(=S)N(Cc2cccc(Br)c2)CC2CCC(C(=O)O)CC2)cc1 (stereo not drawn) 28.2 µM [quencher, side channel, single point]
Cc1cc2c(cc1C)CSC(c1c(O)ccc3ccccc13)SC2 10 µM [quencher, side channel, partial curve]
COc1ccc2c(c1)CCc1c(C(=O)N3CCCCCC3)noc1-2 10 µM [fluorescent, side channel, partial curve, poor fit]
CCCCNCc1cc(Br)c(OCC(=O)NCc2ccccc2)c(OC)c1 14.1 µM [fluorescent, side channel, partial curve]
CCCC[C@H]1C[C@@H]1[C@@H]1N(P(=O)(c2ccccc2)c2ccccc2)[C@](CO)(c2ccccc2)CC12CC2 2.82 µM [fluorescent, side channel, full curve, poor fit]
CCc1ccc(-c2nc(CN3CCCC(C(=O)NCCc4ccc(OC)c(OC)c4)C3)c(C)o2)cc1 (stereo not drawn) 0.708 µM [inhibitor, full curve, poor fit]
CCOc1ccccc1C(=O)OCC(=O)Nc1ncc(C(F)(F)F)cc1Cl 39.8 µM [fluorescent, side channel, single point]
COc1ccccc1C(O)(C(=O)NNc1cccc(C)c1)c1ccccc1OC 39.8 µM [fluorescent, side channel, single point]
COc1ccc(S(=O)(=O)N(C)C(C)CCc2ccco2)cc1 (stereo not drawn) 2.82 µM [inhibitor, full curve]
COC(=O)C(=O)C/C(=N/Nc1ncnc2ccccc12)c1ccc(Cl)cc1 3.16 µM [quencher, side channel, partial curve]
Cc1oc(/N=C/c2ccc(F)cc2)c(C#N)c1C 3.98 µM [fluorescent, side channel, full curve]
O=C(COc1ccccc1F)NCc1ccc(-n2cccc2)cc1 25.1 µM [fluorescent, side channel, partial curve]
CCOC(=O)C1(CCCc2ccccc2)CCN(C(=O)C2=C(C)OCCO2)CC1 3.16 µM [fluorescent, side channel, full curve]
CCOC(=O)c1cc2cc3ccccc3cc2[nH]1 25.1 µM [quencher, side channel, partial curve]
O=[N+]([O-])c1ccc(Nc2nc(NCCO)nc(N3CCCC3)n2)cc1 39.8 µM [quencher, side channel, single point]
COC(=O)C1=C(C)N=C2SC(C)C(=O)N2C1/C=C/c1ccccc1 (stereo not drawn) 17.8 µM [inhibitor, single point]
Cc1ccc(C(=O)Nc2ccc(C(=O)N/N=C/c3ccccn3)cc2)cc1 7.94 µM [quencher, side channel, partial curve]
N#C/C(=C\c1ccc(O)c(O)c1)C(=O)Nc1ccccc1 11.2 µM [quencher, side channel, partial curve] and 22.4 µM [quencher, side channel, single point]
Cc1ccccc1NC(=O)COc1nsnc1N1CCOCC1 39.8 µM [inhibitor, single point]
Brc1ccc(C2=Nc3cccc4cccc(c34)N2)o1 28.2 µM [quencher, side channel, partial curve]
COC(=O)c1ccc(Cn2nc(-c3ccccc3)ccc2=O)cc1 35.5 µM [inhibitor, partial curve, poor fit]
Cc1nc2c(C(=O)NCc3ccco3)cnn2c(C)c1Cc1ccc(F)cc1Cl 12.6 µM [fluorescent, side channel, partial curve]
O=c1c2ccccc2nc(COc2ccccc2)n1/N=C/c1c[nH]c2ccccc12 3.16 µM [quencher, side channel, full curve]
COc1ccc2c(c1OC)C(=O)OC2Nc1nc(-c2cc3cc([N+](=O)[O-])ccc3oc2=O)cs1 (stereo not drawn) 22.4 µM [quencher, side channel, single point]
CCc1cc(=O)oc2cc(C)cc(OCC(=O)NCC3CCC(C(=O)O)CC3)c12 (stereo not drawn) 3.55 µM [fluorescent, side channel, partial curve]
Cc1cccc(Cc2c(C)nc3c(C(=O)NCc4ccco4)cnn3c2C)c1 5.62 µM [fluorescent, side channel, partial curve]
Cc1ccc(NC(C)c2cc(Cl)ccc2O)cc1 (stereo not drawn) 25.1 µM [quencher, side channel, partial curve]

Potency, inactive:
O=C(NC1CCN(Cc2ccccc2)CC1)c1ccccc1
N/C(=N\c1nc2c(c(=O)[nH]1)CCC2)Nc1cccc(Cl)c1
CC(C)Cc1nc2oc3c(=O)[nH]cnc3c2c2c1CCC2
COC1=CC(C)C2CC3OC(=O)CC4C(C)=C(OC)C(=O)C([C@]2(C)C1=O)[C@]34C (stereo partly drawn)
CCc1ccc(NC(=O)c2c(Cl)nc(C)c(Cl)c2C)cc1
CCOCCCNC(=O)CN1C(=O)CSc2ccccc21
Fc1ccc(CNC(=S)Nc2ccc(Cl)cc2Cl)cc1
COc1ccccc1-c1coc2cc(O)ccc2c1=O
Cn1c(=Nc2ccc(N3CCOCC3)cc2)ccc2ccccc21
O=C1/C(=C/c2cccs2)Cc2ccccc21
C#C[C@@]1(O)CC[C@@H]2[C@H]3CCC4=C/C(=N\O)CC[C@H]4[C@@H]3CC[C@]21CC
COc1ccc([N+](=O)[O-])c2c1CCN2C(=O)CC[C@H](N)C(=O)O
O=C1c2ccccc2C(=O)C12OC2c1cccc2ccccc12 (stereo not drawn)
